Whole data set: some 33,000 sequences, median “E-score (-0.5 to 0.5)” near -0.035, cut for the highest 2% near 0.35. The list shows a part of the results.

This assay addresses T1, Pdr3 (UniProt P33200).
T1 sequence: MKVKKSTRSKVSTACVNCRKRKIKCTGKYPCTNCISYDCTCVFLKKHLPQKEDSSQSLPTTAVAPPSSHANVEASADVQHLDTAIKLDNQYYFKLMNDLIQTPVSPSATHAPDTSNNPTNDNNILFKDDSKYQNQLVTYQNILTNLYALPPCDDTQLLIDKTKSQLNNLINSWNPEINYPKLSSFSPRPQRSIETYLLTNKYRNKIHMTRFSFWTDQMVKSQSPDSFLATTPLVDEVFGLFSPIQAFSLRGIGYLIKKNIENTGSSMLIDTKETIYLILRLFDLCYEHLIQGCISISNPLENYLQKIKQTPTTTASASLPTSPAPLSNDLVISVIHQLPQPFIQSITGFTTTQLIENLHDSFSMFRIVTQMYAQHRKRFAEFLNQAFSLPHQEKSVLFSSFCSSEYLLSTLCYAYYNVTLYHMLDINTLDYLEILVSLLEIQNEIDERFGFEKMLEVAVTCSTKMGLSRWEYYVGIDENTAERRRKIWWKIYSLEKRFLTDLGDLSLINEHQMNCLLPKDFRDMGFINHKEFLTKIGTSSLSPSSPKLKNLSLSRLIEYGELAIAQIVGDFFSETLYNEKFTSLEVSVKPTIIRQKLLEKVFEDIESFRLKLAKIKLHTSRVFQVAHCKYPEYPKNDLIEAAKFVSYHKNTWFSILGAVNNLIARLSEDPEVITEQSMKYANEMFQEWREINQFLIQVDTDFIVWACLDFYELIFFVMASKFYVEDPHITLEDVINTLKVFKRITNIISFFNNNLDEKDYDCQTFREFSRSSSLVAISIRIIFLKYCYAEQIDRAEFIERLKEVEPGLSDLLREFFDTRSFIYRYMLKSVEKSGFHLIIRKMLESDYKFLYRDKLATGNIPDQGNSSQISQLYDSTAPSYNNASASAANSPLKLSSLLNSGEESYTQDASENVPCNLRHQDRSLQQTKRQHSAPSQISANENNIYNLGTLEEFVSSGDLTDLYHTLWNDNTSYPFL
As to the kind of experiment: PBM E-score (8-mer binding enrichment) (E-score (-0.5 to 0.5)); higher = stronger / more preferred TF binding; most listed sequences are background and not binding sites. The conditions noted are these: protein concentration: 200 nM; construct: GST-full length. As for the experimental part:
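Universal 'all 10-mer' protein binding microarrays (Agilent AMADID 015681) probed with GST-tagged S. cerevisiae TFs (full-length or DBD) made by in vitro transcription/translation (PURExpress), about 100-200 nM. Bound TF was detected with fluorescent anti-GST. Each ungapped 8-mer (which stands for itself and its reverse complement) is scored by the PBM enrichment score (E-score), a modified Wilcoxon-Mann-Whitney statistic from -0.5 to +0.5, computed with the Universal PBM Analysis Suite. Scale: above 0.35 generally sequence-specific binding.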
As for AAAAACCG, the “PBM E-score” value amounted to 0.0966. AAGACGGA: the “PBM E-score” value is 0.283. Take TATCTGAA: the “PBM E-score” value was 0.0415. As to CTCGACCC, the “PBM E-score” value came to 0.106. With AATTTCGA, the “PBM E-score” value was -0.139. For the sequence ATAGGAGC, the “PBM E-score” value was -0.179. In the case of GAAGAGAA, the “PBM E-score” value worked out at 0.067. For the sequence CATATGGG, the “PBM E-score” value is 0.00354.

In the case of CAAATCAC, the “PBM E-score” value is -0.121. As for AGATGCCT, the “PBM E-score” value was -0.273. AGTAAACG: the “PBM E-score” value is -0.0758.

In the case of CGATGAAA, the “PBM E-score” value was -0.0442. For the sequence AATACTTC, the “PBM E-score” value is 0.0403. With CGTAACCC the figure was -0.0878; with ACATCGTC, -0.11. The result for CATTGTCC reads 0.184; that for GTCGCACA, -0.0784; that for GCGCCAAA, 0.128. Consider CCTCGGAC, for which the “PBM E-score” value amounted to 0.282. For the sequence ACTCGACG, the “PBM E-score” value was determined as 0.0934.

As to GCCTCCGC, the “PBM E-score” value came to 0.115. As for GCCGTCCC, the “PBM E-score” value was 0.216. With CCGATTAA the figure was 0.128; with GTCTGGTA, -0.133. With GATGAAGC, the “PBM E-score” value is 0.0523. For GGCTCGAA, the “PBM E-score” value worked out at 0.00199. In the case of TCTACCCA, the “PBM E-score” value is -0.0331. Regarding GAGGACCC, the “PBM E-score” value is -0.0304.

As to ATAATCAG, the “PBM E-score” value is -0.0167. For the sequence CATGGGTA, the “PBM E-score” value was found to be 0.0552. On to CGTATGAC, for which the “PBM E-score” value is -0.0884. As to ACCTAGCG, the “PBM E-score” value turned out to be 0.00103. Consider ATAGCTGG, for which the “PBM E-score” value stood at 0.0363. As for AGGGGCGG, the “PBM E-score” value came out at 0.188. With CAATAGGG, the “PBM E-score” value is -0.141. Turning to CGAGTCCC, the “PBM E-score” value came to 0.3. The result for AAACCCAC reads 0.0488; that for ACATTGTC, 0.183. Take CACGTAAG: the “PBM E-score” value was -0.149. For CCGCTGTC, the “PBM E-score” value is 0.151. With AAGCCTGC, the “PBM E-score” value is -0.0948. With ATTGACAA the figure was -0.154.

Consider TATACCGA, for which the “PBM E-score” value stood at 0.125. The result for CCAGCAAA reads 0.04; that for AAATTTGC, -0.0657; that for AAATACTA, -0.0698.

Consider TAACAACA, for which the “PBM E-score” value is -0.0129. As for CTTGTTGC, the “PBM E-score” value was -0.149. With ATTAGCCG the figure was 0.0673. The result for CACGTGCG reads -0.0457; that for CACCTCCA, 0.0474. With ACACGTTA, the “PBM E-score” value is -0.28. For AAAAATTC, the “PBM E-score” value is -0.0497. AAAAGCAC: the “PBM E-score” value was -0.291.

For the sequence ACCATAGC, the “PBM E-score” value is -0.00487. The result for CACACGGA reads 0.304; that for GGGCTACC, -0.19; that for CTGCGACA, -0.0812. For the sequence ATAGTACG, the “PBM E-score” value was 0.157. On to CAATGATC, for which the “PBM E-score” value was -0.129. With ATTGGACA the figure was 0.112; with AAGCCAAG, -0.0343; with CATCGATG, -0.0255. In the case of ATGTAGAC, the “PBM E-score” value was -0.239.

ATAGTTAG: the “PBM E-score” value is -0.0506. For TAGGATGA, the “PBM E-score” value is -0.0798. Consider GTATTGTA, for which the “PBM E-score” value was -0.0341.

Take CTCAAGAG: the “PBM E-score” value is -0.404. As for AGCTCTAA, the “PBM E-score” value is -0.0947. Consider AGCATGCA, for which the “PBM E-score” value is -0.265. The result for CACTAATA reads 0.1; that for AGACACCT, -0.08; that for ATATTGTA, -0.0347. Take CCTTACCG: the “PBM E-score” value stood at 0.152. For AGTTTGAA, the “PBM E-score” value came out at 0.106. Turning to CTCTCAGC, the “PBM E-score” value is -0.266. For the sequence CCCGCTCG, the “PBM E-score” value was found to be 0.133. Turning to ACGCAGAA, the “PBM E-score” value is -0.0971. For ACAATTGA, the “PBM E-score” value was -0.101. For GTTTAAGA, the “PBM E-score” value is -0.113. ACCGCAGC: the “PBM E-score” value worked out at 0.0911. With ATACCAGG the figure was -0.0422. Consider AGATTAAC, for which the “PBM E-score” value was -0.0696. Take CCACGGGC: the “PBM E-score” value is 0.261. Regarding AAGGGCCG, the “PBM E-score” value was -0.0299. GGTACCCA: the “PBM E-score” value was -0.149. For the sequence CTCGGGCA, the “PBM E-score” value was 0.163. The result for CTTAGTGA reads -0.146.

For the sequence AGACCATA, the “PBM E-score” value is 0.0909. Regarding CGAGCCGA, the “PBM E-score” value was determined as 0.0934. Turning to ATGACTCC, the “PBM E-score” value is -0.0497. For GCAAGTCC, the “PBM E-score” value is -0.0656.

On to AACATGCC, for which the “PBM E-score” value turned out to be 0.0419. Turning to CCGCTACA, the “PBM E-score” value is 0.0753.

These data come from the supplement of paper PMC3334620.
